Residue numbers refer to the chain shown, from its start. No constants are given. Whether binding was seen depends on the method and setting. For some assays here: In cells and extracts the contact can be indirect. Some entries that bind do so weakly or less than the wild type. For some assays here: Sequences can lack the tags named with a protein.
How the values were obtained:
[1] = biological target: T1, CstF-77-Myc (human) (UniProt Q12996); test: co-IP; anti-Myc antibody (9E10) on Dynabeads Protein G; pooled SLAP lysates of transfected HeLa cells diluted with 2 × NP-40 buffer (100 mM Tris–HCl pH 7.4, 300 mM NaCl, 2% NP-40); 4°C, 1 h; immunoblot
T1 sequence: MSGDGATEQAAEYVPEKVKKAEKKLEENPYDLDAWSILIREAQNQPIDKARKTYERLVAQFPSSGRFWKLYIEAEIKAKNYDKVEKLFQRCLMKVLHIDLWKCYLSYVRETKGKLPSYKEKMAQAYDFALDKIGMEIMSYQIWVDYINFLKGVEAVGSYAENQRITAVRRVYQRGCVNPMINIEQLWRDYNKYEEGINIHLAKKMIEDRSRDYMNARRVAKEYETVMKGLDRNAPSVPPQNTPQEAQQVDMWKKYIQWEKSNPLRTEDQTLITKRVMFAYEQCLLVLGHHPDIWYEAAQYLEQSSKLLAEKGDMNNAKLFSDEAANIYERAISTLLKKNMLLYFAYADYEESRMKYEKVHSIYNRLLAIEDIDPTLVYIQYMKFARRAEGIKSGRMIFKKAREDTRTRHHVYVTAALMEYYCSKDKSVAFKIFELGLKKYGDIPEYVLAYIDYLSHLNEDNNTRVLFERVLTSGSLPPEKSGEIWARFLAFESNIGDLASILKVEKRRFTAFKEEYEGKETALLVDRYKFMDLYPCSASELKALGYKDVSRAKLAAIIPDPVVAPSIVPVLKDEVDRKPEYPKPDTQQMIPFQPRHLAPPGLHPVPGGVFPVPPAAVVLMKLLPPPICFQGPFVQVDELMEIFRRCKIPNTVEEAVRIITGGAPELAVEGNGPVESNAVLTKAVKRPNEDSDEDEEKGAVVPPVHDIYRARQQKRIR

[2] = biological target: T2, CstF-77-Myc-dm77 (human) (UniProt Q12996); test: as above
T2 sequence: T1 sequence with P584A, M589A

[3] = biological target: T1, CstF-77-Myc (human); test: condition: only conditions of CLIP using RIPA buffer; co-IP; conditions of CLIP: transfected HeLa cells UV-crosslinked, lysed in RIPA buffer, anti-Myc antibody (9E10); immunoblot
[4] = biological target: T3, CstF-77-Myc (human), Q12996; test: co-IP; anti-Myc antibody (9E10) on Dynabeads Protein G; pooled SLAP lysates of transfected HeLa cells diluted with 2 × NP-40 buffer (100 mM Tris–HCl pH 7.4, 300 mM NaCl, 2% NP-40); 4°C, 1 h; immunoblot; details: remark: other sources report otherwise
T3 chain: T1 sequence

[5] = biological target: T4, CstF-77 MT (MT-CTD with the last 30 amino acids removed) (human) (UniProt Q12996); test: co-expression and co-purification, complex seen by 1H-15N HSQC NMR; bicistronic co-expression in E. coli; amylose resin by the MBP on the CstF-77 fragment, tags removed with TEV, HisTrap; HSQC in 10 mM phosphate buffer pH 6.0, 2 mM TCEP, 30°C
T4 sequence: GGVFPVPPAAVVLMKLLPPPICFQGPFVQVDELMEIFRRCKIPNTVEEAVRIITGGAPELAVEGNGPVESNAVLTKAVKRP

[6] = biological target: T5, CstF-77 MT-CTD (amino acids 607–717) (human) (UniProt Q12996); test: as above
T5 sequence: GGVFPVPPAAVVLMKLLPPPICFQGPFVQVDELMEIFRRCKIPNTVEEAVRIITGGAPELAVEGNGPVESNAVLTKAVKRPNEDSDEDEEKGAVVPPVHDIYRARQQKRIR

[7] = biological target: T6, CstF-77ΔM-Myc (human) (UniProt Q12996); test: co-IP; anti-Myc antibody (9E10) on Dynabeads Protein G; pooled SLAP lysates of transfected HeLa cells diluted with 2 × NP-40 buffer (100 mM Tris–HCl pH 7.4, 300 mM NaCl, 2% NP-40); 4°C, 1 h; immunoblot
T6 sequence: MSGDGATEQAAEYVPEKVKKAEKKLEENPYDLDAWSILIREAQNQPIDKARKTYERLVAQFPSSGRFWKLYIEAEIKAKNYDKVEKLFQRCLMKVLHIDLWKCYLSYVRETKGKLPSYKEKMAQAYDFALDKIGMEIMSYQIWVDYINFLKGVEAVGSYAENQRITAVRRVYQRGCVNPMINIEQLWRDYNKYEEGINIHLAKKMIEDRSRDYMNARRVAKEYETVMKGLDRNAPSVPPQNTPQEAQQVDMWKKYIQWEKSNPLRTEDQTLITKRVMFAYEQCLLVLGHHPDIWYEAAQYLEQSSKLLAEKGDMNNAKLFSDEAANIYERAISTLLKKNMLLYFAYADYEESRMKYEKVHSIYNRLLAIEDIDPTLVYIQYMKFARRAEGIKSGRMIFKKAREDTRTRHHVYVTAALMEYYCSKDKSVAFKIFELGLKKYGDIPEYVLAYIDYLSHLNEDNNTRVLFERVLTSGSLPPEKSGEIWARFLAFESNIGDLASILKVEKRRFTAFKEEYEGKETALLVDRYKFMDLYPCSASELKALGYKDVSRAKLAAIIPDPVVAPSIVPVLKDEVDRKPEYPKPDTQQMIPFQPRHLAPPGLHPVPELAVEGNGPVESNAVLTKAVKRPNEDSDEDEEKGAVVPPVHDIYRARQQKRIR

B1: endogenous CstF-50 (protein, UniProt Q05048 1-431)
chain: MYRTKVGLKDRQQLYKLIISQLLYDGYISIANGLINEIKPQSVCAPSEQLLHLIKLGMENDDTAVQYAIGRSDTVAPGTGIDLEFDADVQTMSPEASEYETCYVTSHKGPCRVATYSRDGQLIATGSADASIKILDTERMLAKSAMPIEVMMNETAQQNMENHPVIRTLYDHVDEVTCLAFHPTEQILASGSRDYTLKLFDYSKPSAKRAFKYIQEAEMLRSISFHPSGDFILVGTQHPTLRLYDINTFQCFVSCNPQDQHTDAICSVNYNSSANMYVTGSKDGCIKLWDGVSNRCITTFEKAHDGAEVCSAIFSKNSKYILSSGKDSVAKLWEISTGRTLVRYTGAGLSGRQVHRTQAVFNHTEDYVLLPDERTISLCCWDSRTAERRNLLSLGHNNIVRCIVHSPTNPGFMTCSDDFRARFWYRRSTTD
binding [1]: binds
binding [2]: no binding

B2: MCP-CstF-64 (protein, UniProt P33240 1-577)
chain: MAGLTVRDPAVDRSLRSVFVGNIPYEATEEQLKDIFSEVGPVVSFRLVYDRETGKPKGYGFCEYQDQETALSAMRNLNGREFSGRALRVDNAASEKNKEELKSLGTGAPVIESPYGETISPEDAPESISKAVASLPPEQMFELMKQMKLCVQNSPQEARNMLLQNPQLAYALLQAQVVMRIVDPEIALKILHRQTNIPTLIAGNPQPVHGAGPGSGSNVSMNQQNPQAPQAQSLGGMHVNGAPPLMQASMQGGVPAPGQMPAAVTGPGPGSLAPGGGMQAQVGMPGSGPVSMERGQVPMQDPRAAMQRGSLPANVPTPRGLLGDAPNDPRGGTLLSVTGEVEPRGYLGPPHQGPPMHHVPGHESRGPPPHELRGGPLPEPRPLMAEPRGPMLDQRGPPLDGRGGRDPRGIDARGMEARAMEARGLDARGLEARAMEARAMEARAMEARAMEARAMEVRGMEARGMDTRGPVPGPRGPIPSGMQGPSPINMGAVVPQGSRQVPVMQGTGMQGASIQGGSQPGGFSPGQNQVTPQDHEKAALIMQVLQLTADQIAMLPPEQRQSILILKEQIQKSTGAP
binding [1]: binds
binding [3]: no binding

B3: endogenous CstF-77, Q12996 1-717 (protein)
chain: T1 sequence
binding [4]: binds

B4: CstF-64 RRM-Hinge (amino acids 1–195) (domain or fragment, UniProt P33240 1-195)
chain: MAGLTVRDPAVDRSLRSVFVGNIPYEATEEQLKDIFSEVGPVVSFRLVYDRETGKPKGYGFCEYQDQETALSAMRNLNGREFSGRALRVDNAASEKNKEELKSLGTGAPVIESPYGETISPEDAPESISKAVASLPPEQMFELMKQMKLCVQNSPQEARNMLLQNPQLAYALLQAQVVMRIVDPEIALKILHRQT
binding [5]: binds
binding [6]: binds

B5: endogenous CstF-77 (protein, UniProt Q12996 1-717)
chain: T1 sequence
binding [7]: no binding

Source: PMC6294498, “The structural basis of CstF-77 modulation of cleavage and polyadenylation through stimulation of CstF-64 activity”
